Sequences with one replicate were seen in a single cluster, so their values are uncertain.
system: ATP; assay: switch fluorescence ratio, 500 uM ATP over buffer (Cy3 cluster intensity, sum of 5 cycles each) (fold (ratio)); higher = stronger signal-on switching upon ATP binding; sequences stand for … in TCGTCGGCAGCGTCAGATGTGTATAAGAGACAGTTTTTTTTTTTTTTTTTTTTTTTTT…TC; settings: aptamer strand: ATP DNA aptamer (quencher-CACCTGGGGGAGTATTGCGGAGGAAGG + anchor), 100 nM annealed; ATP concentration: 500 uM; one replicate
Outline: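 Five buffer/ATP imaging cycles were run on Cy3-labelled switching-strand clusters on a modified Illumina MiSeq flow-cell, with NaOH stripping and re-annealing between cycles. In each cycle, clusters annealed to 100 nM quencher-labelled ATP aptamer were imaged in selection buffer, then after 15 min with 500 uM ATP at 22 °C. Per cluster, the fluorescence ratio is summed target-cycle over summed buffer-cycle Cy3 intensity, averaged per switch-domain sequence. Only clusters within 100-1000 RFU were kept.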
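Also: ATP exposure 15 min at 22 °C before imaging.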

Sequence	switch fluorescence ratio
ACTGAGCTGT	1.03
ACTGAGTAGA	1.02
ACTGATAGGT	0.998
ACTGCAGAGC	1
ACTGCAGCGC	1.04
ACTGCATAGC	1.05
ACTGCGGGCC	0.986
ACTGCGTTAT	1.07
ACTGCTACCG	1.2
ACTGCTGGGG	1.04
ACTGGAATAA	1.14
ACTGGAGGGA	1.03
ACTGGCGGAC	1.06
ACTGGCTGCC	1.03
ACTGGGACGG	1.09
ACTGGGTTGC	0.989
ACTGGTGTAT	0.99
ACTGGTTTGC	1
ACTGTAGGAT	1.08
ACTGTAGTAA	1
ACTGTCTGAC	1.06
ACTGTGACAC	1.08
ACTGTGCTCA	0.956
ACTGTGGCTT	1.01
ACTGTGGGAA	1.03

Sequence	switch fluorescence ratio
ACTGTTATAA	1.01
ACTGTTTGAT	1.02
ACTGTTTTTG	0.976
ACTTAATCTG	1.06
ACTTACTGTT	1.31
ACTTAGGGCC	0.962
ACTTATGAGT	0.976
ACTTATTCGA	1.04
ACTTATTGCA	1.01
ACTTCACCGG	2.04
ACTTCCCTAA	1.05
ACTTCGTC	1.04
ACTTGAGTAC	1.01
ACTTGATG	1.01
ACTTGCAGTA	1.03
ACTTGGGCC	1.04
ACTTGGGTCC	0.999
ACTTGGTCTG	1.01
ACTTGTACGC	1.17
ACTTGTTTGT	0.986
ACTTTAAGGG	1.06
ACTTTAGGAG	1.05
ACTTTAGGCG	1.06
ACTTTAGTC	1.07
ACTTTATACA	1.09

Sequence	switch fluorescence ratio
ACTTTATATT	1.06
ACTTTATCAC	1.11
ACTTTCCGAA	1.14
ACTTTCGCTC	1.13
ACTTTGAAAT	1.04
ACTTTGCCTA	1.06
ACTTTGGGGC	1.01
ACTTTGTGTT	1.02
ACTTTTCCGA	1.09
AGAAAACGG	1.08
AGAAAATAGC	1
AGAAACGTCA	1.12
AGAAACGTGA	1.08
AGAAAGAGTA	1.01
AGAAATGATT	0.977
AGAAATGCGT	1.04
AGAAATTATG	1.01
AGAACACATA	1.06
AGAACACTTT	1.03
AGAACAGCGC	1.04
AGAACCCAGT	0.976
AGAACGAGTT	1
AGAACTAGCC	1
AGAAGAATTC	1.03
AGAAGCAACG	0.986

Sequence	switch fluorescence ratio
AGAAGGAG	1
AGAAGGGGAG	0.945
AGAAGGGTGC	1.11
AGAAGTAGAG	0.975
AGAAGTCTTA	0.954
AGAAGTGCGC	1.02
AGAAGTTTT	0.999
AGAATAACTA	0.984
AGAATACTGT	1.03
AGAATATGTA	1.01
AGAATGCACT	0.974
AGAATTAAAA	0.987
AGAATTAGCG	1.01
AGACACTCTT	0.95
AGACAGATAT	0.964
AGACAGTAGC	1.01
AGACCAACAG	1.01
AGACCAGGCG	1.04
AGACCCAAGG	1.03
AGACCGTGAA	1.03
AGACCTCGGA	1.04
AGACCTTGAA	0.979
AGACGAATTG	0.998
AGACGACTCC	1.26
AGACGATGAA	1
